According to PubChem BioAssay AID504832 (National Center for Advancing Translational Sciences (NCATS), 2011):
The campaign covered roughly 310,000 compounds. About 18,000 (5.8%) were called active. Inconclusive means that the source gave no clear call. Such entries were picked first, then a sample of the others. Calls come from the whole dose curve; as a rule, active = well fitted inhibition curve with a large enough effect; inconclusive = small, poorly fitted or top-dose-only effect, or another doubt; inactive = no such curve, though single readings can be large or run the other way. No potency is given beside an inconclusive call; the fits are too rough.

Experiment: Primary qHTS for delayed death inhibitors of the malarial parasite plastid, 48 hour incubation
Conditions: P. falciparum luciferase growth in erythrocytes; series mostly up to 28.7 µM; activity change, negative = inhibition: at the top concentration
Outline: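 Erythrocytes infected with P. falciparum carrying an integrated firefly luciferase reporter (2% hematocrit, 0.1% parasitemia final) were exposed to compounds in RPMI 1640 with 0.5% Albumax at 37 C, 5% CO2. Growth inhibition was scored as reduced luminescence.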
% is set by controls: 0 for no effect and ±100 for the full control effect; potency is the fitted concentration of half-maximal effect; tags give direction and shape of the fitted curve.

SMILES	Potency	activity change, negative = inhibition
CCOc1ccc(S(=O)(=O)c2c(C(=O)c3ccc(C)cc3)cnc3cc4c(cc23)OCCO4)cc1	inconclusive [inhibitor, single point]	–
CCCc1nc2oc3cc(OC)ccc3c(=O)c2c(=O)n1Cc1ccco1	active: 9.28 µM	–
CCCCCC(=O)Nc1cccc(C2=NOC3(C2)C[C@@H](C(N)=O)N(C(=O)c2cc([N+](=O)[O-])cc([N+](=O)[O-])c2C)C3)c1 (some centres undefined)	inconclusive [inhibitor, single point]	–
CCn1c(SCC(=O)c2ccccc2)nc2c(c1=O)SC(C)C2 (centres undefined)	inconclusive [inhibitor, partial curve, poor fit]	–
Fc1ccc(-c2nnc(Cc3nnc(-c4ccc(F)cc4)o3)o2)cc1	inconclusive [inhibitor, partial curve, poor fit]	–
O=[N+]([O-])c1cc([N+](=O)[O-])c(Oc2cncc(Cl)c2)cc1NN1CCCCC1	inconclusive [inhibitor, partial curve]	–
COc1cccc(-c2nc(CS(=O)(=O)CC(=O)Nc3c(C)cccc3C)c(C)o2)c1	inconclusive [inhibitor, single point]	–
O=C(CSc1ccccn1)N1CCN(c2ncc(C(F)(F)F)cc2Cl)CC1	inconclusive [inhibitor, single point]	–
CCN1C(=O)[C@H]2[C@@H](c3ccc(-c4ccc(F)cc4)c(OC)c3)N3CCC[C@@]3(C(=O)OC)[C@H]2C1=O	active: 7.38 µM	–
CC(C)CCNC(=O)C(c1ccc(O)cc1)N(Cc1cccs1)C(=O)C1COc2ccccc2O1 (centres undefined)	inconclusive [inhibitor, single point]	–
CCn1c(CN2CCCCCC2=O)nnc1SCc1cnc(-c2ccccc2)s1	inconclusive [inhibitor, partial curve, poor fit]	–
Cc1ccc(NC(=O)C2CCN(C(=O)c3ccccc3C)CC2)nc1	inconclusive [inhibitor, single point]	–
Cc1noc(C)c1COc1ccc(C(=O)NCCc2ccc(F)cc2)cc1	inconclusive [inhibitor, single point]	–
C=CCc1ccccc1OCC(O)Cn1ccnc1C (centres undefined)	–	inactive: -6.17%
COc1ccc(-c2cn3cccnc3n2)cc1NC(=O)C1CCCC1	inconclusive [inhibitor, full curve, poor fit]	–
COC(=O)CSc1nc2cc(OC)ccc2n1C	–	inactive: -11.7%
COC(=O)C1CC(O)CN1S(=O)(=O)c1ccc2ccccc2c1 (centres undefined)	–	inactive: -21.7%
CCN1CCC2(CCN(C(=O)c3cc(COc4cc(C)ccc4C)on3)C2)C1 (centres undefined)	inconclusive [inhibitor, single point]	–
Nc1ccc(C(=O)c2cccs2)cc1[N+](=O)[O-]	–	inactive: 52.1%
Cc1ccc2nc(/C(C#N)=N/O)[nH]c2c1	inconclusive [inhibitor, partial curve, poor fit]	–
CSc1ccc(CN2CCN(Cc3ccc([N+](=O)[O-])cc3)CC2)cc1	inconclusive [inhibitor, full curve, poor fit]	–
O=C1c2ccccc2C(=O)C1c1ccc(Cl)cc1	inconclusive [inhibitor, partial curve]	–

SMILES	Potency	activity change, negative = inhibition
CS(=O)(=O)c1ccc2nc(NC(=O)CCNC(=O)c3ccc([N+](=O)[O-])cc3)sc2c1	inconclusive [inhibitor, partial curve, poor fit]	–
O=C1c2ccccc2NC(c2cccc(Cl)c2)N1N=C1CCCCCC1 (centres undefined)	inconclusive [inhibitor, full curve, poor fit]	–
CCC(Sc1nc2cc(OC)c(OC)cc2c(=O)n1Cc1ccco1)C(=O)NCCOC (centres undefined)	inconclusive [inhibitor, partial curve, poor fit]	–
O=C(CC1OC(=O)c2ccccc21)NNC(=O)c1ccc(F)cc1 (centres undefined)	–	inactive: -21%
C=CCOC(=O)CN1C(=O)c2ccccc2C1=O	–	inactive: 28.6%
Cn1c(CCNC(=O)c2ccco2)nc2cc(NS(=O)(=O)c3ccccc3)ccc21	inconclusive [inhibitor, partial curve, poor fit]	–
O=C(c1ccccc1)N1CCN(C(=O)C23CC4CC(CC(C4)C2)C3)CC1	inconclusive [inhibitor, partial curve, poor fit]	–
O=C(Nc1ccc(NC(=S)NC(=O)c2cccs2)cc1)c1ccccc1	inconclusive [inhibitor, partial curve, poor fit]	–
Cc1ccc(S(=O)(=O)CC(=O)c2cc(C)c(OC(=O)N(C)C)c(C)c2)cc1	inconclusive [inhibitor, single point]	–
CCOc1ccccc1C1CC(c2cccc(NS(C)(=O)=O)c2)=NN1C(=O)c1ccccc1 (centres undefined)	inconclusive [inhibitor, partial curve]	–
O=C(NCCCCc1ccccc1)C12CN(Cc3ccccc3)CC1C(c1ccc([N+](=O)[O-])cc1)=NO2 (centres undefined)	active: 13.1 µM	–
COc1ccccc1-n1c(Cc2ccccc2)nc2ccccc2c1=O	inconclusive [inhibitor, partial curve]	–
COc1ccc(S(=O)(=O)N2CCCC(C(=O)N3CCOCC3)C2)cc1C (centres undefined)	–	inactive: -7.82%
CC(Sc1ccsc1[N+](=O)[O-])C(=O)NCCc1ccc(Cl)cc1 (centres undefined)	inconclusive [inhibitor, single point]	–
O=c1c2ccccc2nc2n1C(CBr)CN2 (centres undefined)	–	inactive: 5.44%
O=C1NC(=S)S/C1=C\C=C\c1ccc([N+](=O)[O-])o1	active: 0.294 µM	–
Nc1nc(/C=C/c2cccnc2)nc(-c2ccccc2O)n1	inconclusive [inhibitor, partial curve, poor fit]	–
CCN1C(=O)N(S(=O)(=O)C(F)(F)F)[C@@H](c2ccccc2)C(C(=O)OC)=C1C	inconclusive [inhibitor, partial curve, poor fit]	–
COc1ccc(-c2ccn(-c3cccc(F)n3)n2)cc1	–	inactive: -12.9%
O=C(CSc1ncc(-c2ccccc2)n1CC1CCCO1)N1CCCCC1 (centres undefined)	inconclusive [inhibitor, single point]	–
O=C(NCCc1ccccc1)c1ccc(Cl)c(S(=O)(=O)N2CCOCC2)c1	inconclusive [inhibitor, partial curve, poor fit]	–
Cc1sc2ncnc(N3CCN(c4ncccn4)CC3)c2c1C	inconclusive [inhibitor, single point]	–

SMILES	Potency	activity change, negative = inhibition
Cc1ccccc1OCC(=O)Nc1cc(S(=O)(=O)N2CCOCC2)ccc1N1CCCC1	active: 10.4 µM	–
CCOC(=O)c1c(NC(=O)C[n+]2ccc(N(C)C)cc2)sc(C)c1C	inconclusive [inhibitor, full curve]	–
Cc1ccc(NC(=O)C2CCN(C(=O)N3CCOc4ccccc43)CC2)cc1	inconclusive [inhibitor, partial curve]	–
COc1ccc(COC(=O)c2ccc(C)c(S(=O)(=O)N3CCOCC3)c2)cc1F	inconclusive [inhibitor, single point]	–
Clc1ccc(NC2(c3nnnn3C3CCCCC3)CCCCC2)cc1	inconclusive [inhibitor, partial curve, poor fit]	–
OC(COCC(F)(F)C(F)(F)C(F)(F)C(F)F)Cn1c2ccc(Cl)cc2c2cc(Cl)ccc21 (centres undefined)	active: 1.04 µM	–
CCOCCCNC(=O)c1cn(CC)c2ccc(S(=O)(=O)N(C)C3CCCCC3)cc2c1=O	active: 9.28 µM	–
CC(C)c1c(C(=O)N/N=C/c2ccc(OCc3ccccc3)cc2)nnn1-c1nonc1N	inconclusive [inhibitor, partial curve]	–
O=C(COc1ccc(S(=O)(=O)N2CCOCC2)cc1)N1CCc2ccccc2C1	inconclusive [inhibitor, partial curve]	–
CNC(=S)N/N=C/c1cn(CCOc2ccc(OC)cc2)c2ccccc12	inconclusive [inhibitor, partial curve]	–
O=C(COC(=O)c1ccncc1)Nc1cc(Cl)ccc1Cl	inconclusive [inhibitor, single point]	–
COCCNC(=O)c1cc(S(=O)(=O)N2CCOCC2)ccc1SCc1cccc(OC)c1OC	inconclusive [inhibitor, single point]	–
Cc1cccc(C(C)C)c1NC(=O)C1CCN(S(=O)(=O)c2ccccc2)CC1	inconclusive [inhibitor, partial curve, poor fit]	–
Cc1ccc(C2c3c(C)nn(-c4ccc([N+](=O)[O-])cc4)c3N=C3C(=O)Nc4ccccc4N32)cc1 (centres undefined)	inconclusive [inhibitor, partial curve, poor fit]	–
O=C(c1cc(COc2ccc3ncccc3c2)on1)N1CCCC(O)C1 (centres undefined)	–	inactive: 48.6%
CC(=O)Oc1ccc(C(=C2CCCCC2)c2ccc(OC(C)=O)cc2)cc1	–	inactive: -6.69%
CC(=O)Nc1cccc(NC(=O)CSc2ccc(-c3ccccn3)nn2)c1	inconclusive [inhibitor, partial curve, poor fit]	–
C=CCNC(=S)/C(=C(\[O-])c1ccc(Cl)cc1)[n+]1ccccc1	inconclusive [inhibitor, partial curve, poor fit]	–
Cc1ccc(NC(=O)COC(=O)CN2C(=O)NC3(CCCC3)C2=O)cc1Cl	–	inactive: 45.5%
CCN(CC)S(=O)(=O)c1cc(NC(=O)C(C)N2CC=C(c3ccccc3)CC2)ccc1C (centres undefined)	inconclusive [inhibitor, single point]	–
